# Measured values reported in paper PMC4336329 (PLoS ONE, 2015).
# Among all 310,000 compounds or so, about 2,200 (0.71%) showed an effect of 50% or more. Effects have a minus sign here. This is one part of the list.
# Target: human ether-à-go-go-related gene (hERG) potassium channel (human, UniProt Q12809)
# Test: primary screen, population patch clamp on CHO cells stably expressing hERG
# Sequence of human ether-à-go-go-related gene (hERG) potassium channel (Q12809 whole entry, looked up): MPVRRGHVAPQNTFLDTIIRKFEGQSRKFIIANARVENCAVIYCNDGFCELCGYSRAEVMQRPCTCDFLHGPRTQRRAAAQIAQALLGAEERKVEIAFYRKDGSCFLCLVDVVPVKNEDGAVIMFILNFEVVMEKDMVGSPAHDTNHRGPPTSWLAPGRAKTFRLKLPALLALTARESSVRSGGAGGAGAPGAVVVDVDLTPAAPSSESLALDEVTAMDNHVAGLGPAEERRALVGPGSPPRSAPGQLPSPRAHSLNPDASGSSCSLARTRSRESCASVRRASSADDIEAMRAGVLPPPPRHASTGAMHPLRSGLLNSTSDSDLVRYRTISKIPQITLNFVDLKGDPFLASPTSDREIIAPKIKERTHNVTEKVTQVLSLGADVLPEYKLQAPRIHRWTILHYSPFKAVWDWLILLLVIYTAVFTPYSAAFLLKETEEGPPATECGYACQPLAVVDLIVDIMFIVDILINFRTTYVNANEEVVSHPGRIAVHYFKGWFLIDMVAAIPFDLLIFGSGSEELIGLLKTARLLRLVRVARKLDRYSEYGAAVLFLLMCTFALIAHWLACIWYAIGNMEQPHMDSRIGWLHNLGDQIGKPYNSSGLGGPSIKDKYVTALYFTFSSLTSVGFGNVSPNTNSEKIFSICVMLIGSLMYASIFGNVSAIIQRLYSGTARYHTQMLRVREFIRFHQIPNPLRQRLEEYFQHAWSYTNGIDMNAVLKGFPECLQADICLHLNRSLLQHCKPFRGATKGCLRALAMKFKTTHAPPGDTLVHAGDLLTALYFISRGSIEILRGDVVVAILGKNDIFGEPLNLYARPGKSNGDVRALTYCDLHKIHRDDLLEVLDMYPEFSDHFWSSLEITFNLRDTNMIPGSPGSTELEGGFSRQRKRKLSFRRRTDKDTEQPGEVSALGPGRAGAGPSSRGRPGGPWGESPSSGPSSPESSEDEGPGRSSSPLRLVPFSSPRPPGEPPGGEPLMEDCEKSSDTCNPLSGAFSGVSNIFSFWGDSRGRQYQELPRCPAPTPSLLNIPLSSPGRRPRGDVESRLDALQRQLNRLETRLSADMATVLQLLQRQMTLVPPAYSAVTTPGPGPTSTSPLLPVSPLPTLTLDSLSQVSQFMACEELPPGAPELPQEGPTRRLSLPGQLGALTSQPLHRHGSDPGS
row,Compound,"hERG current change (%, negative = inhibition) at 1uM"
1,OC1CNCc2cc3c(cc21)OCCO3 (stereo not shown),-3.48%
2,CCOc1ccc(NC(=O)Nc2nnc(CC)s2)cc1,13.4%
3,CCC(CC)C(=O)c1c[nH]c(C(=O)NCc2cccnc2)c1,0.619%
4,CC(C)=C1C2CCC1C1C(=O)N(NC(=O)c3ccco3)C(=O)C21 (stereo not shown),6.47%
5,O=C(c1ccc2nc(N3CCCCC3)sc2c1)N1CCN(Cc2ccc3c(c2)OCO3)CC1,16.9%
6,FC(F)(F)c1cccc(N2CCN(C(=S)NCC3CCCO3)CC2)c1 (stereo not shown),4.59%
7,Cc1cccc(N(C)C(=S)Oc2ccc3ccccc3c2)c1,18.5%
8,CC1CCN(S(=O)(=O)c2cccc(S(=O)(=O)N3CCCC3)c2)CC1,2.54%
9,O=C(N1CCOCC1)N1CCCN(C(=O)N2CCOCC2)CC1,1.45%
10,O=c1[nH][nH]c(-c2ccccc2)c1C=Nc1ccccc1,8.22%
11,O=C(Nc1nc2cc3c(cc2s1)OCCO3)C1=COCCO1,6.45%
12,O=C(c1ccco1)N1CCN(C(=O)C2CCN(S(=O)(=O)c3cccc4nsnc34)CC2)CC1,0.0293%
13,Cc1cc(C(=O)C[N+]2(C)CCOCC2)c(C)n1-c1ccc(Br)cc1.[Cl-],11.4%
14,CCCCOc1ncnc2c1[nH]c1ccc(OCC)cc12,6.91%
15,CC(C)(C)S(=O)(=O)c1cnc2c(-c3ccsc3)cnn2c1N,15.9%
16,Cc1ccc(N2C(=O)c3ccccc3C2Nc2ccc(S(=O)(=O)N3CCOCC3)cc2)nc1 (stereo not shown),12.2%
17,COC(=O)/C=C1/SC(=NC(=O)c2cccc([N+](=O)[O-])c2)NC1=O,14.9%
18,CCCn1cnc2cc(NCc3ccccn3)ccc21,-1.88%
19,CS(=O)(=O)N(CC(=O)N1CCN(Cc2ccccc2)CC1)c1cccc([N+](=O)[O-])c1,-73.1%
20,Cc1cc(C)cc(N(CC(=O)NC2CCCCC2)C(=O)c2csnn2)c1,4.97%

row,Compound,"hERG current change (%, negative = inhibition) at 1uM"
1,CCCCNC(=O)C1CCCN1C(=O)Nc1ccccc1 (stereo not shown),0.208%
2,CCOC(=O)[C@@H]1[C@H]2COc3cc(OC)ccc3[C@H]2N2C(=O)N(c3cccc(Cl)c3)C(=O)[C@@]12C,6.14%
3,Cc1ccc(-n2nc3c(c2NC(=O)c2c(-c4ccccc4Cl)noc2C)CSC3)cc1,4.26%
4,O=C(CSc1nc2ccccc2o1)c1ccc2c(c1)OCCO2,3.01%
5,Cn1c(SCCCC(=O)c2ccccc2)nnc1-c1ccncc1,-24.9%
6,COc1ccc(-n2c(Cc3cccn3C)nnc2SCC(=O)NCc2ccco2)cc1,2.11%
7,Cc1c(C)[n+](=O)c(-c2ccco2)c(C)n1[O-],5.42%
8,Cc1ccc(/C=N/N2CCN(Cc3ccc(C)cc3)CC2)cc1,6.78%
9,CCCCN(C(=O)c1ccccc1Br)C1CCS(=O)(=O)C1 (stereo not shown),3.65%
10,COc1ccc(NC(=S)NC(NC(=O)CCl)C(Cl)(Cl)Cl)c([N+](=O)[O-])c1 (stereo not shown),17.5%
11,CCOc1cc(/C=N/O)cc(Cl)c1OC,8.65%
12,Cc1sc2ncnc(NCCCN3CCCC3=O)c2c1C,6.96%
13,CC1=N/C(=C\c2ccc3c(c2)OCO3)C(=O)N1c1ccc(C(=O)O)cc1,9.67%
14,Cn1nnnc1SCC(=O)NC(=O)Cc1ccccc1,6.79%
15,CC(C)(C)SCCNS(=O)(=O)c1ccc(F)cc1,11.1%
16,Oc1ccc(C[C@@H]2CNCCN2CC2CCCCC2)cc1,10.6%
17,O=C(/C=C/c1ccco1)NCc1ccc(F)cc1,12.3%
18,Cc1ccc(S(=O)(=O)NC(CCc2ccccc2)CC(=O)C(C)(C)C)cc1 (stereo not shown),9.2%
19,CN1CCN(c2ccc([N+](=O)[O-])cc2C(=O)Nc2ccccc2)CC1,-59.8%
20,COc1ccc(CN(C)C(=O)C(Cc2ccccc2)NC(=O)c2ccccc2)c(OC)c1 (stereo not shown),16.5%

row,Compound,"hERG current change (%, negative = inhibition) at 1uM"
1,O=C(CSc1nnc(-c2ccc(O)cc2)n1Cc1ccco1)N1CCc2ccccc2C1,3.52%
2,COCCn1c(=S)[nH]c2cc(C(=O)NCCCN3CCOCC3)ccc2c1=O,9.93%
3,Cc1ccc(NC(=O)c2nc(S(=O)(=O)Cc3ccccc3C)ncc2Cl)cc1C,22.5%
4,c1ccc(Cn2nnc3c(NCC4CCCO4)ncnc32)cc1 (stereo not shown),16.2%
5,O=C(c1ccc(F)cc1)N1C2CCC1CC(O)(c1ccccc1F)C2 (stereo not shown),5.32%
6,CC(C)(C)Nc1nc(Cl)nc(NCCN2CCOCC2)n1,6.5%
7,CC(=O)NC(=S)Nc1ccc(NC(=O)c2cccnc2)cc1,13.3%
8,CCCc1cc(=O)oc2c(C)c(OCC(=O)NCCCn3ccnc3)ccc12,-70%
9,NS(=O)(=O)c1ccc(CCNC(=O)Cc2ccc(Cl)cc2)cc1,9.39%
10,COc1ccc(CNC(=O)CCCN2C(=O)NC3(CCCC3)C2=O)cc1,-2.63%
11,C/C(=N\NC(=O)c1cccc(Br)c1)c1cccnc1,-4.15%
12,Cc1cc(C)cc(NC(=O)c2cc(S(=O)(=O)NCc3ccco3)ccc2F)c1,12.5%
13,CCOc1ccc(S(=O)(=O)n2ccnc2C)cc1,12%
14,CCn1c(Cc2ccccc2)n[nH]c1=S,4.53%
15,O=C(NN=C1CCN(Cc2ccccc2)CC1)c1cccc(S(=O)(=O)Nc2ccccc2Cl)c1,-2%
16,COc1cc(/C=C2/N=C(c3ccccc3F)OC2=O)cc(Cl)c1OS(C)(=O)=O,12.1%
17,Cc1cccc2c(N)c3c(nc12)N(C)CC3.O=C(O)C(=O)O,7.57%
18,CNC(=S)NCCc1ccc(OC)c(OC)c1,2.03%
